Hit rate of the full screen: of about 39,000 compounds, about 220 (0.56%) showed activity. Some of the results follow.
Each molecule was assayed on Escherichia coli K-12 BW25113 (assay: relative growth (OD600 normalised to plate interquartile mean) (fraction); higher = less growth inhibition, active = 0.2 or less). Settings: 50 µM; LB; incubation time: overnight (16-24 h).
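Further: static incubation at 37 °C against the wild-type strain, values averaged over two biological replicates.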

| Structure (SMILES) | relative growth |
| --- | --- |
| C[C@H](CO)N1C[C@H](C)[C@@H](CN(C)Cc2ccc(C(F)(F)F)cc2)OCCCC[C@H](C)Oc2ccc(NC(=O)Nc3ccc4c(c3)OCO4)cc2C1=O | inactive: 1.02 |
| C[C@@H]1CN([C@H](C)CO)C(=O)c2cc(NC(=O)Nc3ccc(C(F)(F)F)cc3)ccc2O[C@@H]1CN(C)Cc1ccc(-c2ccccc2)cc1 | inactive: 0.996 |
| Cc1noc(C)c1S(=O)(=O)N(C)C[C@H]1Oc2ccc(NS(C)(=O)=O)cc2CC(=O)N([C@@H](C)CO)C[C@@H]1C | inactive: 0.969 |
| C[C@H]1CN([C@@H](C)CO)C(=O)c2cc(NC(=O)CCCN(C)C)ccc2O[C@@H]1CN(C)Cc1ccc2c(c1)OCO2 | inactive: 1.01 |
| O=C(C[C@@H]1C[C@@H]2c3cc(NC(=O)Cc4ccncc4)ccc3O[C@@H]2[C@@H](CO)O1)NCCc1ccccc1 | inactive: 0.987 |
| C[C@H]1CN([C@@H](C)CO)C(=O)c2cccc(NC(=O)C3CC3)c2O[C@H]1CN(C)C(=O)Nc1ccc2c(c1)OCO2 | inactive: 1.02 |
| C[C@@H]1CN([C@H](C)CO)S(=O)(=O)c2ccc(C3=CCCC3)cc2O[C@H]1CN(C)C(=O)c1cnccn1 | inactive: 1.01 |
| C[C@H](CO)N1C[C@H](C)[C@H](CN(C)Cc2ccc(-c3ccccc3)cc2)Oc2ccc(NC(=O)c3ccncc3)cc2CC1=O | inactive: 1.02 |
| COc1ccc(NC(=O)Nc2ccc3c(c2)C(=O)N([C@@H](C)CO)C[C@@H](C)[C@@H](CN(C)Cc2ccc(C(F)(F)F)cc2)OCCCC[C@H](C)O3)cc1 | inactive: 1.07 |
| Cc1ccc(S(=O)(=O)N(C)C[C@H]2Oc3ccc(NS(=O)(=O)c4cn(C)cn4)cc3C(=O)N([C@H](C)CO)C[C@@H]2C)cc1 | inactive: 1.03 |
| C[C@H](CO)N1C[C@H](C)[C@H](CN(C)Cc2ccccc2)Oc2ccc(NC(=O)Nc3ccc(C(F)(F)F)cc3)cc2CC1=O | inactive: 0.964 |
| C[C@H]1CN([C@@H](C)CO)C(=O)Cc2cc(NS(=O)(=O)c3ccc(F)cc3)ccc2O[C@H]1CN(C)CC1CC1 | inactive: 1.01 |
| Cn1c(=O)c2c(ncn2CC(=O)N2CCN(C(=O)c3ccco3)CC2)n(C)c1=O | inactive: 0.963 |
| O=C(C[C@H]1CC[C@@H]2[C@H](COC[C@H](O)CN2C(=O)C2CC2)O1)NCc1ccncc1 | inactive: 1.03 |
| C[C@H]1CCCCO[C@H](CN(C)S(=O)(=O)c2cccs2)[C@@H](C)CN([C@@H](C)CO)C(=O)c2cc(NC(=O)CCC(F)(F)F)ccc2O1 | inactive: 0.982 |
| COc1ccc2c3c(n(c2c1)C)[C@H](CO)N(C[C@]13CN(C1)C(=O)CN(C)C)C(=O)CN(C)C | inactive: 1.03 |
| CN1C(=O)c2cc(NC(=O)Cc3cccs3)ccc2OC[C@@H]2O[C@H](CC(=O)NCCCN3CCOCC3)CC[C@@H]21 | inactive: 1.02 |
| C=CC[N+]1(C2CC3C4CCC5CC(O)C(N6CCOCC6)CC5(C)C4CCC3(C)C2OC(C)=O)CCCC1.[Br-] (stereo unspecified) | inactive: 1.03 |
| Cc1ccc(S(=O)(=O)NCC[C@@H]2CC[C@H](NS(=O)(=O)c3ccccc3Cl)[C@@H](CO)O2)cc1 | inactive: 1.01 |
| C[C@@H]1CCCCO[C@@H](CN(C)Cc2ccccc2)[C@@H](C)CN([C@@H](C)CO)C(=O)c2cc(NS(=O)(=O)c3ccccc3)ccc2O1 | inactive: 0.996 |
| CC(=O)O[C@H]1C[C@](C)(O)C2=C[C@@H](O)[C@@](C)(O)[C@@H]2[C@H]2OC(=O)[C@@H](C)[C@@H]21 | inactive: 1.02 |

| Structure (SMILES) | relative growth |
| --- | --- |
| COc1ccc(COCC23Oc4ccccc4[C@H]([C@H]2CO)n2c(c4ccccc4c(-c4ccccc4)c2=O)N3C)cc1 | inactive: 1.01 |
| C=C(C)C1CC=C(C)CC1 (stereo unspecified) | inactive: 0.975 |
| Cn1c(=O)[nH]c(=O)c2[nH]cnc21 | inactive: 0.953 |
| C[C@@H]1CC=CC[C@H](c2cccc(Cl)c2)NC(=O)[C@@H](Cc2ccccc2)N(C)C(=O)c2ccccc2O1 | inactive: 1.02 |
| COc1cccc(NC(=O)N2C[C@H](O)COC[C@@H]3O[C@H](CC(=O)NCc4ccccc4F)CC[C@H]32)c1 | inactive: 1.01 |
| C[C@@H]1CCCCO[C@@H](CN(C)C(=O)Nc2cccc3ccccc23)[C@H](C)CN([C@H](C)CO)C(=O)c2cc(NC(=O)Nc3ccccc3)ccc2O1 | inactive: 1.04 |
| C[C@H](CO)N1C[C@H](C)[C@@H](CN(C)Cc2ccc(C(=O)Nc3ccccc3N)cc2)Oc2c(NC(=O)C3CCCCC3)cccc2C1=O | inactive: 1.01 |
| C[C@@H]1CCCCO[C@H](CN(C)C(=O)Nc2ccc3c(c2)OCO3)[C@@H](C)CN([C@H](C)CO)C(=O)c2cc(NC(=O)Nc3ccc(C(F)(F)F)cc3)ccc2O1 | inactive: 0.998 |
| O=C(C[C@@H]1C=C[C@H](NC(=O)C2CCOCC2)[C@@H](CO)O1)NCCc1cscn1 | inactive: 0.988 |
| C[C@@H]1CN([C@H](C)CO)C(=O)c2cccc(NC(=O)C3CCCCC3)c2O[C@H]1CN(C)C(=O)Nc1cccc2ccccc12 | inactive: 0.98 |
| C[C@H](CO)N1C[C@H](C)[C@H](CN(C)C(=O)Nc2ccc(F)cc2)OCCCC[C@H](C)Oc2ccc(NC(=O)CCCN(C)C)cc2C1=O | inactive: 0.989 |
| Cc1noc(C)c1NC(=O)Nc1ccc2c(c1)CC(=O)N([C@@H](C)CO)C[C@H](C)[C@H](CN(C)S(C)(=O)=O)O2 | inactive: 0.982 |
| C[C@@H]1CN([C@H](C)CO)C(=O)c2cc(NS(C)(=O)=O)ccc2O[C@@H]1CN(C)C(=O)Nc1ccc(C(F)(F)F)cc1 | inactive: 0.922 |
| Cc1ccc(S(=O)(=O)Nc2ccc3c(c2)C(=O)N([C@H](C)CO)C[C@@H](C)[C@H](CN(C)C(=O)CCC(F)(F)F)OCCCC[C@@H](C)O3)cc1 | inactive: 0.981 |
| Nc1ncc(O)cn1 | inactive: 1 |
| C[C@@H]1CCCCO[C@@H](CN(C)S(=O)(=O)c2ccc(Cl)cc2)[C@@H](C)CN([C@H](C)CO)C(=O)c2cc(NC(=O)Nc3ccc4c(c3)OCO4)ccc2O1 | inactive: 0.986 |
| C[C@@H]1CN([C@H](C)CO)C(=O)c2cccc(NC(=O)Nc3ccccc3)c2O[C@@H]1CN(C)Cc1ccc(Cl)c(Cl)c1 | inactive: 1.08 |
| C[C@@H]1CCCCO[C@H](CN(C)C(=O)NC2CCCCC2)[C@H](C)CN([C@H](C)CO)C(=O)c2cc(NC(=O)NC3CCCCC3)ccc2O1 | inactive: 1.01 |
| C[C@@H]1CN([C@H](C)CO)C(=O)c2cc(NC(=O)Nc3ccccc3)ccc2O[C@@H](C)CCCCO[C@@H]1CN(C)Cc1ccc2c(c1)OCO2 | inactive: 1.01 |
| CCC[C@@H](O)C#Cc1cnc2c(c1)C(=O)N([C@H](C)CO)C[C@H](C)[C@H](CN(C)S(=O)(=O)c1ccc(F)cc1)O2 | inactive: 0.979 |
| Cc1ccc(S(=O)(=O)N(C)C[C@@H]2Oc3ccc(NC(=O)Cn4cnnn4)cc3C(=O)N([C@@H](C)CO)C[C@H]2C)cc1 | inactive: 1.01 |

| Structure (SMILES) | relative growth |
| --- | --- |
| Cc1ccc(S(=O)(=O)Nc2cccc3c2O[C@@H](CN(C)Cc2ccc(C(F)(F)F)cc2)[C@H](C)CN([C@H](C)CO)C3=O)cc1 | inactive: 1.04 |
| Cc1ccc(S(=O)(=O)Nc2ccc3c(c2)C(=O)N([C@H](C)CO)C[C@@H](C)[C@@H](CN(C)S(=O)(=O)c2ccc(C)cc2)OCCCC[C@H](C)O3)cc1 | inactive: 1.04 |
| C[C@@H]1CCCCO[C@H](CN(C)S(=O)(=O)c2ccccc2)[C@@H](C)CN([C@H](C)CO)C(=O)c2cc(NC(=O)Nc3ccc(F)cc3)ccc2O1 | inactive: 1.01 |
| NC(=O)NO | inactive: 1.07 |
| COc1ccc(-c2ccc3c(c2)O[C@@H](CN(C)CC2CCOCC2)[C@H](C)CN([C@@H](C)CO)S3(=O)=O)cc1 | inactive: 1.04 |
| Clc1ccccc1C(c1ccccc1)(c1ccccc1)n1ccnc1 | inactive: 1.2 |
| O=C(CCCCCC(=O)N/N=C/[C@H](O)[C@@H](O)[C@H](O)[C@H](O)CO)NO | inactive: 0.988 |
| C[C@@H]1CCCCO[C@H](CN(C)Cc2ccccc2)[C@@H](C)CN([C@H](C)CO)C(=O)c2cc(NC(=O)Nc3ccc4c(c3)OCO4)ccc2O1 | inactive: 0.972 |
| CN(C)CCCNC(=O)[C@@]1(Cc2ccccc2I)c2ccccc2C(=O)N(C2CCCCC2)[C@H]1c1ccc(CO)cc1 | inactive: 1.01 |
| COc1ccc2c3c([nH]c2c1)[C@@H](CO)N(CC1CCCCC1)C[C@]13CCN(CC1)C(=O)Nc1cccc(c1)F | inactive: 0.995 |
| C[C@H](CO)N1C[C@H](C)[C@H](CN(C)CC2CCCCC2)Oc2ccc(NC(=O)CCCCCC(=O)Nc3ccccc3N)cc2C1=O | inactive: 0.982 |
| CN(C)CC(=O)N1CC2(C1)[C@H](c1ccccc1)[C@@H](CO)N2S(C)(=O)=O | inactive: 0.986 |
| C[C@H](CO)N1C[C@H](C)[C@@H](CN(C)C(=O)CCCN(C)C)OCCCC[C@H](C)Oc2ccc(NC(=O)Nc3ccc(C(F)(F)F)cc3)cc2C1=O | inactive: 0.928 |
| O=C(C[C@@H]1C=C[C@@H](NS(=O)(=O)c2ccc(F)cc2)[C@@H](CO)O1)NCc1ccc(Cl)c(Cl)c1 | inactive: 1.01 |
| O=C(CN1CCOCC1)N[C@@H]1CC[C@H](CCNC(=O)Nc2cc(F)ccc2F)O[C@H]1CO | inactive: 1.01 |
| COCC#Cc1ccc2c(c1)O[C@@H](CN(C)S(=O)(=O)c1ccc(C)cc1)[C@@H](C)CN([C@@H](C)CO)S2(=O)=O | inactive: 1.03 |
| NCc1ccoc1 | inactive: 0.982 |
| O=C(O)CCCCCCCCCCCC[C@@H]1C=CCC1 | inactive: 1.02 |
| O=C(C[C@H]1CC[C@@H](NC(=O)CN2CCOCC2)[C@@H](CO)O1)NCCc1ccccc1 | inactive: 1.01 |
